Data reported in the supplement of paper PMC3724861.
The list shows a part of the results.

tested on: T1, Caupolican (Caup) homeodomain DNA-binding domain; experiment: PBM E-score (8-mer, recovered from the published 9-mer minima) (E-score (dimensionless, -0.5 to 0.5)); Drosophila protein; higher = stronger relative binding preference, active = 0.31 or more
T1 sequence: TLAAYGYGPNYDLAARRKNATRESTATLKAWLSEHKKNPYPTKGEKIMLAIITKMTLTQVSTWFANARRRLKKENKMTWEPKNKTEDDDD
How it was run: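 Caup's homeodomain DNA-binding domain (residues 214-303) was made by in vitro transcription and translation and applied at 100 nM to custom-designed protein binding microarrays. Each value is an enrichment score that gives relative binding preference for a short DNA word, with higher meaning stronger. The 8-mer values were recovered from published 9-mer scores, each of which was the minimum of its two constituent 8-mer scores. A cutoff of 0.31 marks candidate sites.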

PBM E-score, active:
TACATCAA 0.331
AAATACAA 0.327
CGACAACA 0.342
GAACACAA 0.317
GACATGCA 0.394

PBM E-score, ≥ -0.109:
AGGCCTTC

PBM E-score, ≥ 0.0719:
ATTTAGCA

PBM E-score, inactive:
TAGCAGAA -0.00478
TTCGAAAA 0.029
AGCTTGTG -0.0301
GTTGCCCA -0.0462
CATCTGCA 0.0265
GGATCCCC -0.255
CTTGGCCC -0.35
GTGCTACA 0.169
CACGCTAG -0.0669
ACTCCATG 0.0194
CCGAAACC -0.0852
AGAATCAA 0.0334
CCGTTCAA -0.0813
AACGGAAG -0.0476
GTAATCCA 0.161
CGGCGTGC -0.208
AACTCATC 0.0561
GGGCTAAC -0.179
CTATTGCC -0.0718
GCAGAGCC -0.291
AACACTGA 0.145
AAGCGGCG -0.17
AATTCTGC 0.00641
GAGTGGGC -0.155
CACAACCA 0.103
CCGACTCG -0.124
AGATTTGG -0.0132
GGGAACCC -0.17
CATGAAAA 0.198
CGACGAGA -0.0279
CCGGCTCG -0.205
GCCTGTAC 0.164
CACTTCGC -0.0353
CGGGGGTC -0.274
CGGACACG 0.184
AACTGTAG 0.121
AAGTATCC -0.0551
ACACTAGC 0.0352
AACGGTTA -0.00156
AGACCACT -0.00222
AATAAGTC 0.0266
GCCAGCGA -0.154
CCATCAAC 0.0807
AATAGTAT 0.175
CAATGAAG 0.123
CTATGTTC 0.31
ATGGGGCC -0.257
AACAGAGA 0.118
GTATCCGA 0.0604
GAAGTCGC -0.0988
CCACGGAA 0.0209
ACGCCTTA -0.071
GAGAAGCC -0.174
TGCCCGAA -0.0392
GCTGTGCC -0.0361
CCAATAAG -0.0294
GAGCTACC -0.103
GGTCGCAC -0.119
ATTTTCCA 0.0797
CATTGACC 0.083
GGGTCCTA -0.107
ACTTCCAT 0.00693
AATACCGC 0.0277
CCACTAGG -0.169
CTTCATAA 0.0204
CATATAAG 0.164
ACCGTATC -0.0493
CTTCGCTA -0.023
AGACAAAT 0.1
TCAGAGAA 0.00804
AGGCTAAG -0.173
CGATTACC -0.0444
CACTGACC -0.134
GTAACAAA 0.217
CTCTCAAC -0.0873
GCCTCTTA -0.151
CTTCGGTA -0.0284
AGTTCGAA 0.124
CGTGAACC -0.0185
CTAATGCC -0.106
GGTATCGA 0.0412
ACCTCACG -0.0522
AGAGGATG 0.0205
AACACAGG 0.162
AGCGCACG -0.123
ACAGTAGG 0.0409
TAGGGAGA -0.138
AGGCGTGC -0.134
AGACTATC 0.0406
ATTCAGTG 0.034
CACGTCCA 0.11
AGACCTGA -0.0421
TCCTTAGA 0.00339
CAGCCGAC -0.0959
ATTAGTTA 0.19
AAGCCATC 8e-05
ATGCTGAA 0.0213
GTCATCAC 0.0296
AATATTAG 0.228
GCCTCTCC -0.189
ATCGCGCA -0.0312
ACTGCTTG 0.00369
ACTACAGA 0.217
ATCCCCTG -0.0464
TGATATAA 0.165
AGGTTTAA 0.0468
CCGGCGAG -0.162
GAGGGAGC -0.196
CGTCAGTA -0.0321
AAAACGAG 0.00037
ACTGGCAG -0.104
GATCTCGA -0.0485
AGATACAG 0.109
ACCTGAGT -0.0167
CGACCTTC -0.128
CGACAGCA 0.0715
GTCGCATA 0.103
ATGGGTCG -0.0702
GCATGTGA 0.176
CTTCCAGA -0.0108
CTCATACA 0.105
AATTCCAA 0.0762
TATTAGGA 0.173
ATCGGCCC -0.167
AAACAGAA 0.0973
CCTCACTA -0.0238
GCATCCGC -0.0969
ACGCCTGC -0.115
ACTTTAAG 0.0186
CCTTTTGC -0.144
CCCTCGCA -0.221
GGTCAAAC 0.0289
GCTCAGAA -0.121
GTCGGAAC 0.0465

PBM E-score, ≥ 0.188:
AACTTATT
